# Data published in PubChem BioAssay AID504832 (National Center for Advancing Translational Sciences (NCATS), 2011).
# Values joined by “and” are separate entries in the source; they are usually repeats but may differ in a detail not shown here. Identical values can stand only once. The campaign covered roughly 310,000 compounds. About 18,000 (5.8%) were called active. The inconclusive results got no clear call from the source; some entries with a clear call stand among them for comparison. Calls come from the whole dose curve; as a rule, active = well fitted inhibition curve with a large enough effect; inconclusive = small, poorly fitted or top-dose-only effect, or another doubt; inactive = no such curve, though single readings can be large or run the other way. No potency is given beside an inconclusive call; the fits are too rough.
# Experiment: Primary qHTS for delayed death inhibitors of the malarial parasite plastid, 48 hour incubation
# Details: P. falciparum luciferase growth in erythrocytes; series mostly up to 28.7 µM
# Outline: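 Luciferase-expressing parasites in RBCs, 2% Hct / 0.1% parasitemia final; RPMI 1640 + 0.5% Albumax; 37 C, 5% CO2, one generation; luminescence read-out, lower signal = inhibition.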
# Potency is the fitted concentration of half-maximal effect; tags give direction and shape of the fitted curve.
row,SMILES,Potency
1,CC(=O)Nc1c(NCC(C)C)c2ccccc2oc1=O,"inconclusive [inhibitor, single point]"
2,Cc1ccc(NC(=O)c2ccccc2CCc2ccccc2)c(C)c1,"inconclusive [inhibitor, partial curve, poor fit]"
3,O=C(NCc1ccccc1)c1cc(-c2cccc(O)c2)on1,inactive
4,O=C(CCSCc1ccccc1Cl)NC1CCCCC1,inactive
5,Cc1nc(NC(=O)CSc2nnc(C3CC3)n2C)sc1C,inactive
6,O=C(CSc1nnc(NC2CC2)s1)Nc1ccc(N2CCOCC2)cc1,inactive
7,O=C1/C(=C/c2ccccc2)SC(=S)N1CC(=O)N1CCCCC1c1cccnc1 (configuration not stated),"inconclusive [inhibitor, partial curve]"
8,COc1cccc(/C=N/NC(=O)c2cc(-c3cccn3C)n[nH]2)c1,"inconclusive [inhibitor, full curve, poor fit]"
9,COc1cc(NC(=O)NCCN2CCN(c3ccc(Cl)cc3)CC2)ccc1C,"inconclusive [inhibitor, single point]"
10,COc1cc2c(C(=O)NCCCN3CC(C)CC(C)C3)cn(CC(C)C)c(=O)c2cc1OC (configuration not stated),"inconclusive [inhibitor, single point]"
11,CC(Oc1ccc(Cl)cc1Cl)C(=O)Nc1ccncc1 (configuration not stated),active: 10.4 µM
12,Nc1cc(C(F)(F)F)cc([N+](=O)[O-])c1N,inactive
13,COc1ccc(/C=N\NC(=O)c2nn(C)cc2Cl)cc1CN1CCOCC1,inactive
14,Cc1cc(NC(=O)COc2ccc(Cl)cc2Cl)n(-c2ccccc2)n1,"inconclusive [inhibitor, partial curve]"
15,CC(C)CN(C(=O)COC(=O)/C=C/c1cccs1)c1c(N)n(Cc2ccccc2)c(=O)[nH]c1=O,"inconclusive [inhibitor, single point]"
16,S=c1[nH]nc2nnc3ccccc3n12,inactive
17,CC(=O)Oc1ccc(C(=O)Nc2cccc(-c3nnc(-c4ccco4)o3)c2)cc1,"inconclusive [inhibitor, partial curve, poor fit]"
18,COc1ccc(/C(C)=N/Nc2nc3ccccc3nc2C)cc1,inactive
19,CCOC1=NN(c2ccc(Cl)cc2)C(=O)/C1=C\N(C)C,inactive
20,O=C(Nc1cccc(NC(=O)C2CCCO2)c1)C1CCCO1 (configuration not stated),inactive
21,Cc1ccc(S(=O)(=O)Nc2cccc(C(=O)NCc3ccc(S(N)(=O)=O)cc3)c2)cc1,inactive
22,CCN(CC)CCCNC(=S)N(Cc1cccs1)Cc1cc2cc3c(cc2[nH]c1=O)OCCO3,"inconclusive [inhibitor, single point]"
23,Cc1ccc(C(=O)Nc2ccc3[nH]c(=O)[nH]c3c2)c(C)c1,inactive
24,O=C(COC(=O)c1ccc[n+]([O-])c1)Nc1ccc(Cl)cc1[N+](=O)[O-],"inconclusive [inhibitor, partial curve, poor fit]"

row,SMILES,Potency
1,O=C(c1ccc2ccccc2c1)N1CCc2ccccc21,inactive
2,CC(C)=CC(=O)O[C@H]1[C@@H]2[C@H](C)C(=O)O[C@@H]2C[C@@H](C)[C@@H]2[C@@H](O)CC(=O)[C@]21C,inactive
3,Cc1ccc(S(=O)(=O)N2CCCCC2)cc1NC(=S)NC(=O)c1ccco1,"inconclusive [inhibitor, partial curve, poor fit]"
4,COc1c(C(=O)NNC(=O)c2ccccc2Cl)csc1Br,inactive
5,CC(C)OP(=O)(c1ccc(N(C)C)cc1)C(O)c1ccccc1F (configuration not stated),inactive
6,COc1ccc(C2(O)C(=O)Nc3ccc(C)cc32)cc1OC (configuration not stated),inactive
7,COc1cccc(N(CC(=O)NC2CCCCC2)C(=O)CCCC(=O)Nc2ccccn2)c1,"inconclusive [inhibitor, single point]"
8,Cc1cc(C(=O)CC#N)c(C)n1CC(F)(F)F,"inconclusive [inhibitor, full curve, poor fit]"
9,Cc1cccc(Nc2nc(N)nc(CCl)n2)c1,"inconclusive [inhibitor, partial curve]"
10,O=C(Cc1ccsc1-c1ccccc1)NO,active: 13.1 µM
11,O=C(O)COc1ccc(Br)cc1CP(=O)(c1ccccc1)c1ccccc1,"inconclusive [inhibitor, single point]"
12,Cc1cc(-c2nc(C)c(C(=O)NN)s2)no1,inactive
13,COc1ccc(OC)c(C(=O)c2ccc(C(=O)Nc3ccccc3)cc2)c1,"inconclusive [inhibitor, single point]"
14,COc1ccccc1OCC(=O)NCCNC(=O)COc1ccccc1OC,"inconclusive [inhibitor, partial curve, poor fit]"
15,CCOC(=O)c1ccccc1-c1csc(NS(=O)(=O)c2ccc(Cl)cc2)n1,inactive
16,COc1ccc(-n2nc(C(=O)NCc3ccco3)c3c4ccccc4n(C)c3c2=O)cc1,inactive
17,Cc1cccc(C(=O)OCC(=O)NC(C)CCc2ccccc2)c1 (configuration not stated),"inconclusive [inhibitor, single point]"
18,O=C(N/N=C/c1cc(Br)ccc1O)c1cccc(N2CCCC2=O)c1,"inconclusive [inhibitor, single point]"
19,COCCNC(=O)C1CC(c2ccccc2C(F)(F)F)=NO1 (configuration not stated),"inconclusive [inhibitor, partial curve, poor fit]"
20,O=C(Nc1cccc(F)c1)c1cccnc1NCCc1ccccc1,inactive
21,COc1ccc(CCNC(=O)CSc2nnc(CNc3ccc(Cl)cc3)o2)cc1OC,"inconclusive [inhibitor, partial curve]"
22,CC(C)(C)c1ccc(C(=O)N/N=C/c2ccccn2)cc1,"inconclusive [inhibitor, partial curve]"
23,COCCN(C(=O)c1snc(C(N)=O)c1N)C(C(=O)NC1CCCCC1)c1ccc(N(C)C)cc1 (configuration not stated),"inconclusive [inhibitor, full curve, poor fit]"
24,OC(COC(c1ccccc1)c1ccccc1)CN1CCN(c2cccc(Cl)c2)CC1 (configuration not stated),"inconclusive [inhibitor, single point]"

row,SMILES,Potency
1,CCN(C(=O)COC(=O)COc1ccc(Cl)c(C)c1)C1CCS(=O)(=O)C1 (configuration not stated),"inconclusive [inhibitor, single point]"
2,CC(C)c1ccccc1NC(=S)NCc1ccncc1,"inconclusive [inhibitor, single point]"
3,O=C1[C@H]2[C@@H](c3ccc(Cl)cc3)N3C(=O)N(c4cccc(Cl)c4)C(=O)[C@@]3(Cc3ccc(Cl)cc3)[C@H]2C(=O)N1C1CCCCC1,active: 2.62 µM
4,Cc1ccc(CSc2nnc(-c3cccc(S(=O)(=O)N4CCOCC4)c3)n2C2CCCC2)cc1,active: 9.28 µM
5,CC(CC(=O)Nc1cc(C(F)(F)F)ccc1Cl)c1ccccc1 (configuration not stated),inactive
6,O=C(OCC(=O)N1CCN(c2ccccc2)CC1)c1cc(Br)ccc1Cl,"inconclusive [inhibitor, single point]"
7,CCOc1ccc(CN(C)C(C)C(=O)Nc2ccc([N+](=O)[O-])cc2Cl)cc1OC (configuration not stated),"inconclusive [inhibitor, single point]"
8,Cc1ccc(-n2nc3ccc(NC(=O)/C=C/c4ccco4)cc3n2)cc1,inactive
9,O=C(CCc1c[nH]c2ccccc12)NCC1COc2ccccc2O1 (configuration not stated),"inconclusive [inhibitor, partial curve, poor fit]"
10,Cc1ccc(N2CC(O)(c3cccs3)[N+]3=C2CCCC3)cc1 (configuration not stated),"inconclusive [inhibitor, partial curve]"
11,COc1ccc(C(=O)NNC(=S)NC(=O)c2ccccc2)cc1,"inconclusive [inhibitor, single point]"
12,CCCn1c(SC(C)C(=O)NCC2CCCO2)nc2sc3c(c2c1=O)CCC3 (configuration not stated),active: 13.1 µM
13,CN1C(=O)c2ccccc2Sc2ccc(NC(=O)N3CCCC3)cc21,"inconclusive [inhibitor, partial curve]"
14,Cc1cc(N)n(-c2ccc3ccccc3c2)n1,inactive
15,COC(=O)c1cc2occc2n1CC(=O)Nc1ccc(C)cc1C,inactive
16,COCCCCC(=NOCCN)c1ccc(C(F)(F)F)cc1,"inconclusive [inhibitor, single point]"
17,C=CCN1C(=O)c2ccccc2Sc2ccc(C(=O)N3CCN(C)CC3)cc21,"inconclusive [inhibitor, single point]"
18,Cc1ccc(Cl)cc1N1CCN(C(=O)COc2ccc3c(c2)CCC3)CC1,"inconclusive [inhibitor, single point]"
19,O=C(Nc1ccc(Cl)cc1)Nc1ccc(Cl)c(Cl)c1,active: 3.01 µM and active: 2.33 µM
20,COc1ccc(C(=O)NC2CC2)cc1OC1CCN(Cc2cc(C)c(C)cc2C)CC1,"inconclusive [inhibitor, single point]"
21,CC(=O)N1c2ccc(S(=O)(=O)N3CCC(C(=O)NCc4ccccc4Cl)CC3)cc2CC1C (configuration not stated),"inconclusive [inhibitor, single point]"
22,COc1ccc(S(=O)(=O)N2CCN(C(c3ccccc3)c3ccccc3)CC2)cc1NC(C)=O,"inconclusive [inhibitor, partial curve, poor fit]"
23,CC(C)CN(C(=O)COC(=O)C1c2ccccc2Oc2ccccc21)C1CCS(=O)(=O)C1 (configuration not stated),"inconclusive [inhibitor, partial curve, poor fit]"
24,Cc1cccc(Nc2nc(N)c([N+](=O)[O-])c(N3CCN(C)CC3)n2)c1,"inconclusive [inhibitor, single point]"
